Reference: paper PMC10194883 (PLOS ONE, 2023)

Molecular target: ACE2 binding to wild type of SARS-CoV-2 RBD (UniProt P0DTC2+Q9BYF1)

O=C(O)C(=O)O [OA, Oxalic acid]
inhibitory effect on ACE2 binding to wild type SARS-CoV-2 RBD: no inhibitory effect
